Source: the supplement of paper PMC4466236
The full ranking holds about 33,000 sequences; the median of “E-score (dimensionless, -0.5 to 0.5)” is about -0.058, and the highest 2% start at about 0.35. The list shows a part of the results.

test system: MvaT; experiment: PBM 8-mer E-score (mean of HK and ME arrays) (E-score (dimensionless, -0.5 to 0.5)); higher = stronger relative binding preference; most listed sequences are background and not binding sites
Outline: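 Full-length P. aeruginosa MvaT carrying an N-terminal glutathione S-transferase tag was tested by protein binding microarray following a previously described protocol. Two universal double-stranded 60-mer arrays, ME and HK, were used, each with a constant 25-mer primer region and a variable 35-mer region covering all 8-mers. The rank-based E-score is the mean of the two arrays, parsed with a custom script. Its range runs from -0.5 to 0.5 for each 8-mer.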

| Sequence | PBM 8-mer E-score |
| --- | --- |
| CTTGTTCA | -0.0697 |
| AATAATTG | 0.372 |
| CAAGCACA | -0.179 |
| ACCTCCGC | -0.228 |
| CAGACCAA | -0.055 |
| CAAGGTTA | -0.0496 |
| CGCAATGA | 0.0722 |
| ATCAGTAA | 0.164 |
| CTTCTTCA | -0.0388 |
| GGTCGACC | -0.236 |
| GCAATAGC | 0.0498 |
| GCAAAATA | 0.198 |
| CATGCCCG | -0.172 |
| ATGCGTCG | -0.0193 |
| TAAGAATA | 0.265 |
| AATGATAT | 0.21 |
| GTGCCTAA | -0.0518 |
| GACGGCTA | -0.189 |
| AGGGACAT | -0.206 |
| AGAATAAA | 0.255 |
| ACAGAGTG | -0.126 |
| CCTTTAGA | -0.0288 |
| CAACAACG | 0.0584 |
| CCGATAGA | 0.0276 |
| ATCGTGAA | 0.0237 |

| Sequence | PBM 8-mer E-score |
| --- | --- |
| ACGGTATC | -0.216 |
| CAGTAAAA | 0.218 |
| AACGGCCC | -0.241 |
| CCAGAAAA | -0.0593 |
| CTAATGAC | -0.0523 |
| CCGTGGTA | -0.0164 |
| CATCATAA | 0.166 |
| CGACATTC | -0.172 |
| AGAGTACT | 0.133 |
| CAACTTGG | -0.0273 |
| AGGGTGAG | -0.0976 |
| AGGGTGAC | -0.163 |
| GACCTTAA | 0.0512 |
| CTATATCC | 0.123 |
| ATATCCTC | 0.0982 |
| CCCTGGCG | -0.342 |
| CTCGTGCC | -0.31 |
| AGGCAATG | 0.0344 |
| ATTCATAA | 0.251 |
| CCGCACAG | -0.019 |
| CGGCAAGC | -0.3 |
| ATAAACTC | 0.269 |
| ACCTATTA | 0.263 |
| ACAAGCCA | -0.127 |
| CAGTATCG | -0.0136 |

| Sequence | PBM 8-mer E-score |
| --- | --- |
| CCATGACA | -0.163 |
| CTGCTGGA | -0.0606 |
| CTGAGCAC | -0.21 |
| AGTCCTGC | -0.267 |
| CCCCCTGC | -0.343 |
| AACTATCT | 0.215 |
| CTATTCGC | 0.00255 |
| GTAATCAA | 0.121 |
| AAGGGGTC | -0.178 |
| GCAGACGC | -0.189 |
| GAGGTACA | -0.151 |
| CTCGTCGA | -0.0694 |
| GCCTCCCC | -0.263 |
| AACTGAAT | 0.187 |
| GTAACGTA | 0.104 |
| CTTTATCC | 0.159 |
| ATTGGCTA | 0.0173 |
| AATTCTAG | 0.157 |
| CAAGCAAC | -0.196 |
| ACCGAAGA | -0.00581 |
| CTCGGCAA | -0.0663 |
| AGGATACC | -0.202 |
| AGGCACTA | -0.101 |
| AGCTAGCG | -0.184 |
| ATACGTCC | -0.0038 |

| Sequence | PBM 8-mer E-score |
| --- | --- |
| AATCAATT | 0.246 |
| AAACACGT | -0.000832 |
| AGGTGGAA | -0.00313 |
| CCTATAAG | 0.0158 |
| ACAAGTCG | -0.0351 |
| ACAGATCC | -0.141 |
| AGTTTAGA | 0.197 |
| GACGGGAA | 0.0205 |
| GAAGTCCC | -0.141 |
| TGTACCAA | 0.0155 |
| ACCGGCCG | -0.116 |
| GAACCCAC | -0.119 |
| CATTTCTA | 0.0518 |
| AGAGTTGA | 0.00339 |
| AGATTTCG | 0.0192 |
| ATGATACG | 0.00711 |
| CTCTGGCC | -0.204 |
| GTGACCAA | -0.0538 |
| GACGTGCA | -0.104 |
| CCCTACCC | -0.224 |
| GCAAACGC | -0.0755 |
| AGATGACT | -0.0245 |
| AATATTCG | 0.326 |
| AGGCCTCG | -0.272 |
| GCTTTGAC | -0.0823 |

| Sequence | PBM 8-mer E-score |
| --- | --- |
| ACCGGGCC | -0.222 |
| ACCGACAC | -0.0129 |
| AGGTATAC | 0.0641 |
| GACGTATC | -0.141 |
| CAATCTCG | 0.0138 |
| AAGGACGA | -0.241 |
| ATGCTCCA | 0.00382 |
| GAATTCGC | 0.0607 |
| AAAAGAGG | -0.0661 |
| CGACGCCG | -0.301 |
| ACTAACAA | 0.268 |
| TCCAACAA | 0.0903 |
| TAGTAGGA | -0.0219 |
| ATCATCAC | 0.0417 |
| CCGTAGCG | -0.231 |
| TAATTGTA | 0.305 |
| AGAACCTC | -0.204 |
| CTGGGGAA | -0.111 |
| CCTCATCC | -0.243 |
| CAGGTAGC | -0.0988 |
| ACACCGTA | -0.052 |
| ACTTCGCA | 0.0386 |
| TCAAGTGA | -0.00408 |
| CTACGGGC | -0.221 |
| AAGCATTA | 0.0777 |

| Sequence | PBM 8-mer E-score |
| --- | --- |
| AATATTGA | 0.327 |
| TCTCAGAA | -0.0828 |
| CAATGCGC | -0.0153 |
| TGGGAAAA | 0.0302 |
| CAGCATTC | -0.0903 |
| ATCTGAAC | 0.0141 |
| ACTTCTGG | -0.0169 |
| AGTCGCTC | -0.255 |
| CCAACATA | 0.285 |
| CAAGTCTG | -0.209 |
| CCCTAAGC | -0.305 |
| CGTGCGCA | -0.0706 |
| CAGGGTGA | -0.101 |
| CGATGCTA | -0.067 |
| CATGACAC | -0.13 |
| CGTCTACA | -0.012 |
| AACGGATG | -0.0102 |
| GTTCGGTA | -0.00278 |
| TGGCCGAA | -0.12 |
| CTCTCATA | 0.00755 |
| ACCAAATA | 0.222 |
| CGCCACGA | -0.237 |
| GCCTGCAC | -0.226 |
| ACGCGGGA | -0.148 |
| ACTTTGTG | 0.0749 |

| Sequence | PBM 8-mer E-score |
| --- | --- |
| GTTACATA | 0.273 |
| CTCCATTA | 0.0627 |
| AATATAAT | 0.449 |
| CCGACGAC | -0.128 |
| ACCACAAA | -0.0136 |
| CCTTAGAC | -0.217 |
| AGGCAGCA | -0.0964 |
| AAGGTGAT | 0.0321 |
| CGTGCCAG | -0.247 |
| AACCTCGC | -0.119 |
| CCCTCCAG | -0.283 |
| GACCGAGA | -0.107 |
| GTTGCCGA | -0.147 |
| AAGCGTCG | -0.0962 |
| ATCGTCCC | -0.191 |
| AGCCTACT | -0.0958 |
| CCTACGCA | -0.19 |
| GCCATCAA | -0.164 |
| CGTCTTCC | -0.173 |
| TAACTTGA | 0.301 |
| CGATACGA | -0.174 |
| AATAAGAT | 0.356 |
